# According to article PMC4336329 (PLoS ONE, 2015):
# The whole screen tested about 310,000 compounds, of which about 2,200 (0.71%) showed an effect of 50% or more. The effect is printed as a negative number. Some of the results follow.
# Target: human ether-à-go-go-related gene (hERG) potassium channel (human, UniProt Q12809)
# Experiment: primary screen, population patch clamp on CHO cells stably expressing hERG
# Sequence of human ether-à-go-go-related gene (hERG) potassium channel (Q12809 whole entry, looked up): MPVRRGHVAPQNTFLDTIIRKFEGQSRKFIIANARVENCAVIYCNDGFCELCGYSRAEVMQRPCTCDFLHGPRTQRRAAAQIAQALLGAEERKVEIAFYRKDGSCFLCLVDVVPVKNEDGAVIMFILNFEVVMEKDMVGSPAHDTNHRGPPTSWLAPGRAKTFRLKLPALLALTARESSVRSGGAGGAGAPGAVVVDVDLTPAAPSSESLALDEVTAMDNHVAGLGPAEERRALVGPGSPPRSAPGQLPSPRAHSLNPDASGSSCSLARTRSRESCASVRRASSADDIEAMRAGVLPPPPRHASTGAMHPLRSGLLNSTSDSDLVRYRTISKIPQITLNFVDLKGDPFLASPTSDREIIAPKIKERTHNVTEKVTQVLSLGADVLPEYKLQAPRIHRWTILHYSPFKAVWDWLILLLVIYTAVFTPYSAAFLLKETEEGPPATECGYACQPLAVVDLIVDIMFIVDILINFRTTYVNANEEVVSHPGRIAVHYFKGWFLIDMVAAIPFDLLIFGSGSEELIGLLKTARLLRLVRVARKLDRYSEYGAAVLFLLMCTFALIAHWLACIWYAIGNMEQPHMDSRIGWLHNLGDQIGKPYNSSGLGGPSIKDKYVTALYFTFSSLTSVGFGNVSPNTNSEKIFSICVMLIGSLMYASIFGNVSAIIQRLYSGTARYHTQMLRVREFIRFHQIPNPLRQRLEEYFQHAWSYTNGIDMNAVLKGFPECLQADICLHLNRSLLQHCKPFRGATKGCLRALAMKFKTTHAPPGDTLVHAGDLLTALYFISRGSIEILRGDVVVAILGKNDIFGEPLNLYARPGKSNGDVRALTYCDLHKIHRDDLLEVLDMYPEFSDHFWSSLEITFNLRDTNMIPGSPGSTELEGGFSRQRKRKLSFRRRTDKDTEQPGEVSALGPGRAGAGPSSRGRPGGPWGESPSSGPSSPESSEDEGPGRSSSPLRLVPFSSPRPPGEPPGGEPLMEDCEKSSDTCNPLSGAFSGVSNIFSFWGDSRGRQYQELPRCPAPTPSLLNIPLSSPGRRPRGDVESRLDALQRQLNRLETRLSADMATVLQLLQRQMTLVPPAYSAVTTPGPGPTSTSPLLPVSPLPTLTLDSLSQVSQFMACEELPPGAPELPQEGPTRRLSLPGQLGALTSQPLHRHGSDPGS
row,Structure (SMILES),"hERG current change (%, negative = inhibition) at 1uM"
1,O=S(=O)(NCc1cccnc1)c1cc(Cl)ccc1Cl,14.4%
2,N#Cc1ccc(S(=O)(=O)N2CCC(C(=O)Nc3cccc(C(=O)NC4CC4)c3)CC2)cc1,5.83%
3,O=[N+]([O-])c1ccccc1OCC(O)CN1CCN(CC(O)COc2ccccc2[N+](=O)[O-])CC1 (centres unmarked),-15.3%
4,Cc1onc(-c2ccccc2Cl)c1C(=O)NCc1cccs1,3.24%
5,COC(=O)c1ccsc1NC(=O)CS(=O)(=O)c1ccccc1,4.02%
6,Cc1c(NC(=O)c2c(NC(=O)CNC3CC3)sc3c2CCCC3)c(=O)n(-c2ccccc2)n1C.O=C(O)C(=O)O,15.1%
7,Cc1nnc(C)n1/N=C/c1c(O)ccc2ccccc12,7.17%
8,COc1ccc(CCC(=O)N2c3ccccc3CC2C)cc1 (centres unmarked),9.07%
9,COc1cccc(CNC(=O)CCC2CCCN(C(=O)c3cc(C)[nH]n3)C2)c1 (centres unmarked),8.79%
10,Cc1cccc([C@@H]2[C@@H]3C(=O)N(C)C(=O)[C@@H]3[C@@H]3C(=O)Nc4ccccc4C(=O)N23)c1,14.6%
11,CN(Cc1cccs1)CC(O)COCc1ccco1 (centres unmarked),5.31%
12,O=C(NCCCN1CCOCC1)C1CC(=O)N(c2ccccc2)C1 (centres unmarked),11.6%
13,Cc1ccccc1S(=O)(=O)Cc1ccc(C(=O)NCCN(C)Cc2ccccc2)o1,-5.08%
14,CCN(CC)CCN(C(=O)CN1C(=O)CCC1=O)c1nc2cc3c(cc2s1)OCO3.Cl,3.68%
15,O=C(NCCN1CCCCC1)c1ccco1,9.42%
16,COC(=O)c1[nH]c2cccc(OC)c2c1NC(=O)CN1CCN(c2cccc(OC)c2)C(C)C1 (centres unmarked),20%
17,Cc1ccc(NS(=O)(=O)c2ccc(NC(=O)c3cccs3)cc2)cc1,9.72%
18,Cc1ccc(C2CC(C(F)F)n3ncc(C(=O)Nc4c(C)nn(Cc5c(F)cccc5Cl)c4C)c3N2)cc1 (centres unmarked),14.5%
19,COc1cc(C(=O)NC2CC3CCCC(C2)N3Cc2ccccc2)cc(OC)c1OC (centres unmarked),15%

row,Structure (SMILES),"hERG current change (%, negative = inhibition) at 1uM"
1,O=C(O)CCC(=O)NNC(=O)COc1cccc(Cl)c1,5.01%
2,COC(=O)C1=C(C)NC(=S)NC1/C=C/c1ccccc1 (centres unmarked),12.7%
3,COc1cc(CNc2ccc(CNc3ncn[nH]3)cc2)cc(Cl)c1OCc1ccccc1,11.1%
4,CNC(=O)c1ccsc1NC(=O)c1sc2ccccc2c1Cl,20.2%
5,O=C(Nc1ccccc1C1CC1)c1cccs1,3.83%
6,c1ccc(Cn2ncc3c(N4CCN(C(c5ccccc5)c5ccccc5)CC4)ncnc32)cc1,24.6%
7,Cc1ccc(S(=O)(=O)N/N=C/c2ccc(C#N)cc2)cc1,10.8%
8,NC(=O)Cn1cc(/C=N\NS(=O)(=O)c2ccc(F)cc2)c2ccccc21,7.41%
9,Cc1c(/C=N/O)c2ccccn2c1C=O,11.4%
10,Cc1[nH]ccc(=O)c1Oc1ncc(C(F)(F)F)cc1Cl,8.88%
11,CC1CCCC(C)N1C(=O)CN1CCN(c2nc(-c3ccc(F)cc3)cs2)CC1 (centres unmarked),1.2%
12,O=C(Nc1cc2c(cc1C(=O)O)OCCCO2)c1ccc(C(F)(F)F)cc1,18.3%
13,COc1ccc(C(C)=O)cc1COc1ccccc1[N+](=O)[O-],19.4%
14,Cc1ccc(-n2c(SCc3nc4ccccc4[nH]3)nnc2-c2ccncc2)cc1,-9.47%
15,O=S(=O)(NCc1ccco1)c1ccccc1Br,8.66%
16,CC(=O)NS(=O)(=O)c1ccc2c(c1)Cc1cc(S(=O)(=O)NC(C)=O)ccc1-2,15.7%
17,Cl.OC1(c2cccnc2)CCN(Cc2nnnn2C2CCCCC2)CC1,13.5%
18,O=C(COc1ccc([N+](=O)[O-])cc1)NCC(c1cccs1)N1CCOCC1 (centres unmarked),-18.4%
19,Clc1cccc(C2=NOC(c3nnc(-c4ccccc4)o3)C2)c1 (centres unmarked),15.9%

row,Structure (SMILES),"hERG current change (%, negative = inhibition) at 1uM"
1,CN(C)CCNC(=O)c1ccc2c(c1)N(Cc1ccc(F)cc1)CCS2,-5.22%
2,O=C(Nc1ncc(S(=O)(=O)c2ccc([N+](=O)[O-])cc2)s1)c1ccc2ccccc2c1,15.3%
3,O=C(Nc1ccc(F)cc1F)c1cc2ncc(CCCl)cn2n1,8.39%
4,CCc1ccc(OCC(=O)Nc2ncc3c(n2)CC(C)(C)CC3=O)cc1,-9.42%
5,Cl.Nc1ccccc1Sc1nc2ccccc2[nH]1,8.57%
6,CCN1C(=O)c2cccc3c(N)ccc(c23)C1=O,17.5%
7,Cc1cc(/C=C(\C#N)C(=O)NCc2cccs2)c(C)n1-c1ccc([N+](=O)[O-])cc1,10.8%
8,CCCc1nc(SCc2ccc(OCC)cc2)n[nH]1,12.6%
9,COc1ccc2[nH]c(CN3CCN(C(C)C)C(CCO)C3)c(C)c2c1 (centres unmarked),6.12%
10,COc1ccc(C(=O)O)cc1S(=O)(=O)NCCc1ccccn1,9.8%
11,Cc1sc2ncnc(NCCCO)c2c1C,6.84%
12,COc1cc(OC)cc(C(=O)NCC(=O)OCC(=O)N2CC(C)CC(C)C2)c1 (centres unmarked),22.1%
13,O=C(NC1CCCCC1)c1ccc2c(=O)n(CC3CCCO3)c(=O)[nH]c2c1 (centres unmarked),10.4%
14,CCN(Cc1ccccc1)C1CCN(Cc2ccc(SC)cc2)CC1.O=C(O)C(=O)O,-23.9%
15,O=C(CSc1ccc2ccccc2c1Br)Nc1cccc(S(=O)(=O)NC2=NCCCCC2)c1,8.54%
16,CC(C)(C)C(O)C(Oc1ccc(Cl)cc1)n1cncn1 (centres unmarked),6.26%
17,CN(C)CCNC(=O)C(=O)NCC1OCCN1S(=O)(=O)c1ccc([N+](=O)[O-])cc1 (centres unmarked),10.5%
18,CN(Cc1ccccc1)c1ccc([N+](=O)[O-])cc1C(=O)O,15.1%
